Among the data in the GPR68 mutational scans of Howard et al. (2025) are cAMP reporter score and surface expression score values, retold here.

First the molecules themselves.
B1: GPR68, Q15743 (parent)
chain: MGNITADNSSMSCTIDHTIHQTLAPVVYVTVLVVGFPANCLSLYFGYLQIKARNELGVYLCNLTVADLFYICSLPFWLQYVLQHDNWSHGDLSCQVCGILLYENIYISVGFLCCISVDRYLAVAHPFRFHQFRTLKAAVGVSVVIWAKELLTSIYFLMHEEVIEDENQHRVCFEHYPIQAWQRAINYYRFLVGFLFPICLLLASYQGILRAVRRSHGTQKSRKDQIQRLVLSTVVIFLACFLPYHVLLLVRSVWEASCDFAKGVFNAYHFSLLLTSFNCVADPVLYCFVSETTHRDLARLRGACLAFLTCSRTGRAREAYPLGAPEASGKSGAQGEEPELLTKLHPAFQTPNSPGSGGFPTGRLA

Data set [1] covers variants of B1. Nature of the data set: cAMP reporter score (Enrich2 score, wild type = 0); higher = more signal; HEK293T, FACS bins.
Data set [2] covers variants of B1. Nature of the data set: surface expression score (Enrich2 score, wild type = 0); higher = more signal; HEK293T, FACS bins.

Scores whose standard error is large were omitted. Not listed are two conditions whose scores span a narrow range. Names with del lack the residues named; names with ins carry added residues between the positions named. For part of these data: How much ogerin was present is not stated here.

For Y205_Q206insGS, the cAMP reporter score is -1.3 in data set [1] (pH 5.5); -0.632 in data set [1] (pH 6); -1.26 in data set [1] (pH 6.5, modulator: ogerin). In data set [2], the surface expression score is -2.26.

Turning to I208_L209insG, the cAMP reporter score was -0.353 in data set [1] (pH 5.5); 0.075 in data set [1] (pH 6); -0.95 in data set [1] (pH 6, modulator: ogerin); -0.27 in data set [1] (pH 6.5, modulator: ogerin). The surface expression score in data set [2] is -1.99.

With Q219del, the cAMP reporter score in data set [1] (pH 5.5) was -1.38; in data set [1] (pH 6) it was -1.7; in data set [1] (pH 6, modulator: ogerin), -1.58; in data set [1] (pH 6.5, modulator: ogerin), -1.37. Further, in data set [2], the surface expression score is -0.639.

G217del: the cAMP reporter score in data set [1] (pH 5.5) was 0.856; in data set [1] (pH 6, modulator: ogerin) it was -0.158; in data set [1] (pH 6.5, modulator: ogerin), 1.26. Also, the surface expression score in data set [2] came out at 0.26.

G207del: the cAMP reporter score was -1.51 in data set [1] (pH 5.5); -1.82 in data set [1] (pH 6); -1.8 in data set [1] (pH 6, modulator: ogerin); -1.2 in data set [1] (pH 6.5, modulator: ogerin). Further, the surface expression score in data set [2] was -2.78.

In the case of T218_Q219insGS, the cAMP reporter score in data set [1] (pH 5.5) was -0.98; in data set [1] (pH 6) it was -0.133; in data set [1] (pH 6, modulator: ogerin) it was -0.624; in data set [1] (pH 6.5, modulator: ogerin) it was -2.15. Also, in data set [2], the surface expression score came to 1.39.

On to L209_A211del, for which the cAMP reporter score is -1.67 in data set [1] (pH 5.5); -0.716 in data set [1] (pH 6); -1.23 in data set [1] (pH 6, modulator: ogerin); -0.741 in data set [1] (pH 6.5, modulator: ogerin). Besides, the surface expression score in data set [2] is -0.043.

For the variant L202_A203insGS, the cAMP reporter score is -0.902 in data set [1] (pH 5.5); -1.35 in data set [1] (pH 6); -1.5 in data set [1] (pH 6, modulator: ogerin); -1.32 in data set [1] (pH 6.5, modulator: ogerin). Moreover, in data set [2], the surface expression score is -2.

A211R: the cAMP reporter score in data set [1] (pH 5.5) is -1.29; in data set [1] (pH 6), -0.566; in data set [1] (pH 6.5, modulator: ogerin) it was -0.465. Also, the surface expression score in data set [2] turned out to be 0.026.

As to A211Q, the cAMP reporter score was 0.902 in data set [1] (pH 5.5); 1.24 in data set [1] (pH 6); 0.937 in data set [1] (pH 6, modulator: ogerin); -0.299 in data set [1] (pH 6.5, modulator: ogerin).

On to A211V, for which the cAMP reporter score was -0.62 in data set [1] (pH 5.5); -0.18 in data set [1] (pH 6); -0.591 in data set [1] (pH 6, modulator: ogerin); -0.515 in data set [1] (pH 6.5, modulator: ogerin). In addition, the surface expression score in data set [2] is -0.587.

Take A211I: the cAMP reporter score was 1.46 in data set [1] (pH 5.5); 0.52 in data set [1] (pH 6); 0.87 in data set [1] (pH 6, modulator: ogerin); 1.02 in data set [1] (pH 6.5, modulator: ogerin). The surface expression score in data set [2] is -0.402.

For the variant A211Y, the cAMP reporter score was -0.488 in data set [1] (pH 5.5); -0.048 in data set [1] (pH 6); -0.788 in data set [1] (pH 6, modulator: ogerin); -0.837 in data set [1] (pH 6.5, modulator: ogerin). Besides, the surface expression score in data set [2] was -1.08.

For A211P, the cAMP reporter score in data set [1] (pH 5.5) was -0.554; in data set [1] (pH 6), -1.65; in data set [1] (pH 6, modulator: ogerin), -0.671; in data set [1] (pH 6.5, modulator: ogerin), -1.3. Further, the surface expression score in data set [2] was -0.863.

On to A211D, for which the cAMP reporter score was 0.197 in data set [1] (pH 5.5); -1.01 in data set [1] (pH 6); -0.456 in data set [1] (pH 6, modulator: ogerin); -0.78 in data set [1] (pH 6.5, modulator: ogerin). Also, the surface expression score in data set [2] was -0.086.

Consider A211F, for which the cAMP reporter score in data set [1] (pH 5.5) is -0.365; in data set [1] (pH 6, modulator: ogerin), -0.644; in data set [1] (pH 6.5, modulator: ogerin) it was -0.426.

For the variant A211T, the cAMP reporter score is -0.136 in data set [1] (pH 5.5); -0.366 in data set [1] (pH 6); -0.354 in data set [1] (pH 6, modulator: ogerin); -0.75 in data set [1] (pH 6.5, modulator: ogerin). Also, the surface expression score in data set [2] is -0.576.

Consider A211L, for which the cAMP reporter score was -1.03 in data set [1] (pH 5.5); -0.862 in data set [1] (pH 6); -1.8 in data set [1] (pH 6, modulator: ogerin); -0.986 in data set [1] (pH 6.5, modulator: ogerin). In data set [2], the surface expression score is -1.83.

Regarding A211E, the cAMP reporter score in data set [1] (pH 5.5) is 0.793; in data set [1] (pH 6) it was -0.224; in data set [1] (pH 6, modulator: ogerin) it was 0.66; in data set [1] (pH 6.5, modulator: ogerin), 1.95. Moreover, the surface expression score in data set [2] was found to be 0.376.

With A211M, the cAMP reporter score in data set [1] (pH 5.5) was -0.537; in data set [1] (pH 6), -0.99; in data set [1] (pH 6, modulator: ogerin), -1.15; in data set [1] (pH 6.5, modulator: ogerin), -0.601. Further, in data set [2], the surface expression score was -0.982.

As for A211H, the cAMP reporter score is 1.17 in data set [1] (pH 5.5); -0.783 in data set [1] (pH 6); 0.106 in data set [1] (pH 6, modulator: ogerin); -0.179 in data set [1] (pH 6.5, modulator: ogerin). Further, the surface expression score in data set [2] is -0.539.

Turning to A211S, the cAMP reporter score in data set [1] (pH 5.5) was 0.519; in data set [1] (pH 6), -0.674; in data set [1] (pH 6, modulator: ogerin), 0.328; in data set [1] (pH 6.5, modulator: ogerin), -0.272. Moreover, in data set [2], the surface expression score was -0.833.

In the case of A211K, the cAMP reporter score in data set [1] (pH 5.5) is -0.057; in data set [1] (pH 6), -0.007; in data set [1] (pH 6, modulator: ogerin), -0.378; in data set [1] (pH 6.5, modulator: ogerin) it was -0.929. Also, the surface expression score in data set [2] is 0.106.

On to A211C, for which the cAMP reporter score is -0.832 in data set [1] (pH 5.5); -1.13 in data set [1] (pH 6); -0.512 in data set [1] (pH 6, modulator: ogerin); -0.529 in data set [1] (pH 6.5, modulator: ogerin). Also, the surface expression score in data set [2] was -0.687.

On to A211N, for which the cAMP reporter score was -1.11 in data set [1] (pH 5.5); -0.782 in data set [1] (pH 6); -0.503 in data set [1] (pH 6, modulator: ogerin); -1.2 in data set [1] (pH 6.5, modulator: ogerin). Moreover, the surface expression score in data set [2] was -0.582.

In the case of Q206_G207del, the cAMP reporter score is -0.949 in data set [1] (pH 5.5); -1.09 in data set [1] (pH 6); -0.583 in data set [1] (pH 6, modulator: ogerin); -0.192 in data set [1] (pH 6.5, modulator: ogerin). Further, the surface expression score in data set [2] was -2.22.

With R213_R214del, the cAMP reporter score was -1.36 in data set [1] (pH 5.5); -1.63 in data set [1] (pH 6); -1.83 in data set [1] (pH 6, modulator: ogerin); -0.996 in data set [1] (pH 6.5, modulator: ogerin). For the same variant, the surface expression score in data set [2] was -0.347.

In the case of H216_G217del, the cAMP reporter score in data set [1] (pH 5.5) was -1.34; in data set [1] (pH 6), -0.721; in data set [1] (pH 6, modulator: ogerin) it was -0.486; in data set [1] (pH 6.5, modulator: ogerin) it was -0.72. Besides, in data set [2], the surface expression score is -0.099.

Take H216_G217insGSG: the cAMP reporter score was -1.17 in data set [1] (pH 5.5); -0.189 in data set [1] (pH 6, modulator: ogerin); -1.19 in data set [1] (pH 6.5, modulator: ogerin). In addition, in data set [2], the surface expression score came to 0.628.

For R214_S215insG, the cAMP reporter score in data set [1] (pH 5.5) was -1.23; in data set [1] (pH 6), -0.758; in data set [1] (pH 6, modulator: ogerin), -0.674; in data set [1] (pH 6.5, modulator: ogerin) it was -1.29. Further, the surface expression score in data set [2] was 0.959.

As for R214_S215insGS, the cAMP reporter score was -1.2 in data set [1] (pH 5.5); -1.14 in data set [1] (pH 6, modulator: ogerin); -0.874 in data set [1] (pH 6.5, modulator: ogerin). Also, the surface expression score in data set [2] was 1.23.
